Measured values taken from the RNAGym collection of RNA variant scans (doi:10.7554/elife.90254).
Read counts are not given, so values of variants with three or more changes are uncertain.

B1: LINE1-mini (parent)
chain: GGCAGAGCUCAACACAGCGUGGCAAAGUGGCUGUGGCUAGACUGCC

Variants of: B1
Test: self-cleavage, relative activity (ratio to wild type); higher = more cleavage; in vitro, sequencing; the parent is a self-cleaving ribozyme

| Variant | self-cleavage |
| --- | --- |
| C18G G21U G36A C46A | 0.01 |
| U20A G29A G35A A39G | 0.05 |
| C18U U43A G44C C46A | 0.08 |
| U20A G29U G30C C31G A41C | 0.07 |
| C18G G22A G33C | 0.02 |
| G19U G21U A41C U43C C45G C46A | 0.04 |
| U20A G21U A25C U38G | 0 |
| C18U G19A G30U G33A U34A G36A G40A | 0.02 |
| C18U U20A U32G G33U G44C | 0.01 |
| G19U G21U C46A | 0.12 |
| G19A G33A C46G | 0.06 |
| G19A G30U C37A | 0 |
| U20A G30A U38A C46G | 0.23 |
| G19C A25G G44U | 0.26 |
| G19A G22U A26U U38C A41G | 0.48 |
| G19A A26U G29C | 0.18 |
| C18G G19C G29A | 1.14 |
| C18U C23A U28C C31U | 0.14 |
| G19A G21A G30U | 1.37 |
| C18U A24G A25C | 0.22 |
| C18U C23U G29A G44U | 0.26 |
| C18G U20A U38G C46G | 0.01 |
| G19A G30A A39C | 0.08 |
| C18U G19C U38C G40C | 0.04 |

| Variant | self-cleavage |
| --- | --- |
| C18U G29C U32A G40U C42U C45G | 0.02 |
| G19A G40U C46A | 0.07 |
| G19A G21C U32C A41U | 0.21 |
| U20A G21U G29U G33A | 1.24 |
| C18U G21U G40A | 0.05 |
| G19A A26U G30U G35A C37A | 0.03 |
| C18U A24G G30A C31A U32G G36U | 0.03 |
| G19U G27C U38A | 0.31 |
| U20C A39C G40U | 0.07 |
| C18U G33U C42A | 0.02 |
| C18U G19U G30U | 0.09 |
| C18G U20G U28G A41G U43A C46A | 0.01 |
| G19U U28A G35A G36C C45A | 0.62 |
| U20A G29U A39G | 0.06 |
| G19U A26G U38G A39U | 0.01 |
| G19U C37A G44A | 0.02 |
| G19A G30U C31A | 0.35 |
| G19U G33C G44C | 0.06 |
| C18G G19C A41G | 0.23 |
| U20C G21U U34A | 0.13 |
| G19A A24U A39G | 0.12 |
| C18U G19A G21U U28A G40U | 0.05 |
| G19A A25C G27C | 0.37 |
| C18U C23U U38A A39C C45U | 0.84 |

| Variant | self-cleavage |
| --- | --- |
| G19C C42U C46U | 0.06 |
| G19A A24U A25C G44A | 0.12 |
| G19C A26G A39G | 0.03 |
| U20C A25U C45G | 0.01 |
| C18U U20A A26C G40U G44C | 0.05 |
| C18G U38G G40C C45U | 0.01 |
| U20C A39G A41U | 0 |
| C18U G40U C42U U43A | 0 |
| C18U G27C A39U C46U | 0.32 |
| C18G U28A U43C | 0.08 |
| G19C U38A A41U | 0.03 |
| G19A A26U G27A U28A | 0.4 |
| G19C C42U G44U | 0.06 |
| G19C C42U G44A | 0.01 |
| C18U G30C A41U | 0.42 |
| G19U G21C A26C C45A | 0.06 |
| G19A G21U C23A U43A | 0.01 |
| U20A G36U G44A | 0.01 |
| G19U C23A G29C G35C C37A U38A | 0.02 |
| U20C A24U G33C | 0.05 |
| C18U G19C A25C | 0.11 |
| U20A A25G C37U | 0 |
| C18G U20A G30C G33C | 0.05 |
| G19U U20A G30U C46U | 0.14 |

| Variant | self-cleavage |
| --- | --- |
| G19C A39G C45A | 0.02 |
| G19A C23U A26U | 0.86 |
| G19A G22C A26G G33A | 0.05 |
| G19A C31A C37U U43C | 0.06 |
| U20A G35A A41U G44C | 0.04 |
| G19A U20G C37U | 0.04 |
| G19U C23G U34C G36C U38G A39G | 0.03 |
| C18G G19C G22A G27C G29U | 1.29 |
| U20A U28C G29A G36C | 0.07 |
| C18G U20A G40U U43A | 0.04 |
| G19U U28A C45A | 0.9 |
| G19A G22C A26G G27A A41C | 0.08 |
| G19U G30U C45U | 0.48 |
| G19U G27C U34G | 0.26 |
| U20A G21C U28A | 0.65 |
| G19C G21U C23G A24U | 0.3 |
| G19U G21U C42G C45A | 0.06 |
| U20A G36A A39C | 1.63 |
| G19U G21C A24G G33A U34G C42G C45A | 0.06 |
| G19U A24U U28C G33C U38A | 0.19 |
| C18U C31A A41G U43C | 0 |
| G19U A26U C46G | 0.85 |
| U20A U43G G44A C46A | 0.04 |
| U20A U32C G35A | 0.01 |

| Variant | self-cleavage |
| --- | --- |
| U20A U32A U38A | 0.06 |
| C18U C37G A39C U43C | 0.01 |
| G19U G21U A24G U32C C45A | 0.04 |
| U20A A41G C46A | 0.04 |
| U20A G40U A41C | 0.29 |
| G19C C23G A26G G40U | 0.01 |
| G19C G29U G44C | 0.07 |
| G19C C31G G40C | 0.03 |
| G19C C31G G40A | 0.04 |
| G19A G21A U28C | 1.27 |
| U20C C23A G29C C37U U38C | 0 |
| C18U G22C G27U | 0.23 |
| G19C G35A G36U | 0.26 |
| C18U G21A G27U G29A | 2.86 |
| C18U C23A G35C | 0.02 |
| G19U G22U C31G | 0 |
| C18G G19U C31A C46A | 0.09 |
| G19A A26U U28G | 2.15 |
| G19A C31U U34G C42U | 0.03 |
| U20C C37G A39C | 0.02 |
| C18G G35U C37A U43G | 0.07 |
| C18G U38A U43C | 0.07 |
| U20A A25G C46A | 0.05 |
| C18U G19C G27U G40C C45A | 0.05 |

| Variant | self-cleavage |
| --- | --- |
| C18G G40A A41C | 0.04 |
| G19A G22U U43C | 0.1 |
| C18U G19A G36U | 0.1 |
| G19U G36U C37G | 0.01 |
| G19A C37G C45U | 0.02 |
| G19A U34A G44C | 0.06 |
| G19U C23A G35U | 0.14 |
| C18G G19U A39G | 0.01 |
| G19C A41G C45U | 0.04 |
| C18U G22A G29U G33C | 0.02 |
| C18U G30C C37A | 0.05 |
| G19U G22U C23A | 0.34 |
| G19A G40U C42A | 0.01 |
| U20C C23A G36A | 0.11 |
| G19A U28C C31G | 0.06 |
| U20C A26G G30C A39C | 0.17 |
| G19C C31A U34C G36C | 0.04 |
| C18U U20C G30A | 0.78 |
| C18U C31A G33C | 0.03 |
| G19C A26G U34G | 0.07 |
| U20A G27U C45G | 0.89 |
| C18U C23U A26G G30U | 0.15 |
| U20C C31A U32A G40U C46G | 0.01 |
| U20A G29A A41C | 0.08 |

| Variant | self-cleavage |
| --- | --- |
| G19A G27U C37U C45U | 0.04 |
| G19U G30U G40A | 0.04 |
| C18G U20A A24U | 0.22 |
| G19U G29U C45A | 0.49 |
| U20A A25G G29A U34C | 0.09 |
| C18G G33A C37U C46U | 0.07 |
| C18U G36A C42G | 0.04 |
| U20C C31U U32A | 0.08 |
| G19C U20A G29A G36U U38A G40A C42U | 0.11 |
| G19U A26U G33A G40C | 0.01 |
| G19U A26C A41U | 0.49 |
| U20A A24C U28G | 0.16 |
| G19C G27C G30A G36U | 0.05 |
| C18G G19U C23A A26G C37A A39G | 0.01 |
| U20A G36U A41U C46G | 0.15 |
| G19A G21C G36U G40U A41U U43A | 0.15 |
| G19A G21U C23A G29A G36C | 0.15 |
| G19U A24C G29U G40C | 0.08 |
| G19A G22U A41U | 0.23 |
| G19C G21U G27A G40A C42A C45U | 0 |
| C18U A39C U43A | 0 |
| U20A A26U G33U G36A G40A | 0.05 |
| G19C G21A U38A | 0.19 |
